In the supplement of paper PMC11417369:
Some of the results follow.

tested on: PfAP2-HC AP2 domain (GST-tagged); assay: gcPBM binding intensity (ln(normalized median fluorescence intensity)); higher = stronger DNA binding
In short: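 Binding intensity is defined as the maximum Masliner-normalised natural-log median intensity across replicate spots for either probe orientation. It was measured on an Agilent 4 × 180k array of primer-extended double-stranded 36-bp intergenic genomic probes and negative controls, to which GST-tagged P. falciparum DNA-binding domains made in E. coli were applied for 1 h in 1× PBS with 1% milk, 0.2 mg/ml BSA, 0.5% salmon testes DNA and 0.03% Triton X-100. Detection was by Alexa488 anti-GST antibody and scanning at 488 nm.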

Compared with “TATAATATTATACATAGTACACATCACACATCGCAA [XGTACX_site4650]”, “TATATACTTTTATGTACACACCTATAATATGGGTGA [CACACA_site5044]” is lower in “gcPBM binding intensity (ln)” value: 9.99 for the first, 9.73 for the second.

Compared with “TTTGGTTATATTTAAAAAAGACTAATGAAAATTAAA [XGTACX_negctrl_site526]”, “AAAAAAAAAAAAAATACACACATAAAATAAATAACA [CACACA_site439]” is higher in “gcPBM binding intensity (ln)” value: 9.35 for the first, 9.91 for the second.

First: AATTTACAAATATAATGTACATAATTATATATATAT [XGTACX_site278]
Second: AATAGTAAAAATCACTGTACGTTTATTTTTAAAATG [XGTACX_site1035]
The “gcPBM binding intensity (ln)” value of the first is lower: 9.64 for the first, 9.75 for the second.

Going from “CCATATACAACCATACGTACATATATATATATATAT [XGTACX_site8193]” to “CATACCATACATAAAACACACAAAATTTACAGAATA [CACACA_site7451]”, the “gcPBM binding intensity (ln)” value rises from 9.79 to 10.2.

Compared with “ATAATATTTTGAAACGGTACACTTTTAAAATACACT [XGTACX_site4423]”, “AAAATAAGGAAAAAAAAAAAAAAAAAAAAAAAAAAG [CACACA_negctrl_site1291]” is lower in “gcPBM binding intensity (ln)” value: 9.62 for the first, 9.58 for the second.

Going from “AACACTACATAAAACTGTACAATAGTATTTTATTAT [XGTACX_site996]” to “TTTTTTTTTATATTTAGTACATATATATTATTATAT [XGTACX_site3334]”, the “gcPBM binding intensity (ln)” value rises from 9.74 to 9.76.

First: ACAAGATGATGGAAATGTACATAAAAAGAATCATAT [XGTACX_site8682]
Second: CTTAGTGTATTTGAATGTACGCATAAATATAATTAT [XGTACX_site2830]
The “gcPBM binding intensity (ln)” value of the first is higher: 9.96 for the first, 9.55 for the second.

Going from “ATTATTAAAATGATATGTACGCACATAATATACATA [XGTACX_site3236]” to “AAAAAAAAAAAACATACACACAAATATGTACATACA [CACACA_site7807]”, the “gcPBM binding intensity (ln)” value rises from 9.7 to 9.95.

Going from “TATATATTAATATATGCATGTACGATTATTATAATA [TGCATGCA_site446]” to “AATAAAAATCCACAAGCACACAAATGTACTTATATA [CACACA_site8783]”, the “gcPBM binding intensity (ln)” value rises from 9.56 to 9.74.

First: TAAATACAAAAATGTACACACATATAAATATTTTTA [CACACA_site7612]
Second: TTAATTAAATATTATACACACAAAAAAATAACTTTA [CACACA_site6197]
The “gcPBM binding intensity (ln)” value of the first is higher: 9.76 for the first, 9.66 for the second.

First: AAAGTGTTAACCTAATCTTTAGTTTTTAAACAATAT [CACACA_negctrl_site841]
Second: TGTATTTAAAATGGTTGTACATAAATAAAAATAAAA [XGTACX_site7771]
The “gcPBM binding intensity (ln)” value of the first is higher: 9.53 for the first, 9.5 for the second.

Compared with “TATTGAAACGTATAGACACACATATGATATATATAT [CACACA_site3226]”, “ATTTATTTATTTATATGTACTTATATATGTATTTTC [XGTACX_site6269]” is higher in “gcPBM binding intensity (ln)” value: 9.78 for the first, 9.99 for the second.

Compared with “TAATTTATTATATTTTGTACGTAAAATTATTATTGT [XGTACX_site8155]”, “TAGGAAAAGAAAAGCACACACATAAATAAATATATA [CACACA_site504]” is higher in “gcPBM binding intensity (ln)” value: 9.6 for the first, 10.3 for the second.

Going from “AATATTTATTTTACATGTACTTATTTTTCTTTTAAC [XGTACX_site3631]” to “AATATATATTTATATTGTACATATATATATATTTCT [XGTACX_site2603]”, the “gcPBM binding intensity (ln)” value falls from 10.1 to 9.72.

First: CATTCATTTATTAATTGTACTTTTAAGGTTAAATAA [XGTACX_site5838]
Second: ATTATATATACACGCACACACACTTATATATATATA [CACACA_site9093]
The “gcPBM binding intensity (ln)” value of the first is lower: 9.25 for the first, 10.7 for the second.

First: TTTTTAACATATCATACACACAACAACTTTTTATAG [CACACA_site1962]
Second: CAAGCCCTTCTGCTTACACACAGTAATTATTGTGTA [CACACA_site2953]
The “gcPBM binding intensity (ln)” value of the first is lower: 9.84 for the first, 9.9 for the second.

Compared with “TAAAAATATATACATACATGCATACATATATATGTA [TGCATGCA_site774]”, “AAAAAAAAAAATATAACACACAAAAAATTGTATCGA [CACACA_site1144]” is higher in “gcPBM binding intensity (ln)” value: 9.52 for the first, 9.69 for the second.

First: ATATAGTAAAATTATACACACATGAATTTTCCCATA [CACACA_site3113]
Second: ACAAAATTTACAAAATGTACATATTGTAGATATTGT [XGTACX_site7618]
The “gcPBM binding intensity (ln)” value of the first is higher: 9.81 for the first, 9.53 for the second.

Going from “CCATTAAATACATACACACCCACACCCAAAAAAAAA [CACACA_site4633]” to “TATAAATAAAGACACACACACATATAAATAAATATA [CACACA_site7155]”, the “gcPBM binding intensity (ln)” value falls from 10.8 to 10.5.

Going from “TTTATATACTATTCAAAGTGATAAATAATATATGAA [TGCATGCA_negctrl_site352]” to “AAAAAAAAAAAACATACACACAATAAAATAGGGGTA [CACACA_site2399]”, the “gcPBM binding intensity (ln)” value rises from 9.52 to 10.2.

Going from “ATTTATTTATTAAGATGTACTTATTAAAAATAATAA [XGTACX_site7392]” to “ATTTATTCATTTGGGTGTACTATTTAAAAAAAACAA [XGTACX_site498]”, the “gcPBM binding intensity (ln)” value rises from 9.33 to 9.39.

First: TATTTATATTTTAACACACACATATTTATATTTATA [CACACA_site7324]
Second: TATATATAATTTTATACATGCACATATTATATATAT [TGCATGCA_site1036]
The “gcPBM binding intensity (ln)” value of the first is higher: 10 for the first, 9.82 for the second.

First: TATATTTTTTAAACCACACACAATATAGAGTATAAT [CACACA_site4510]
Second: TAAACATTTTTGCACGCACACAAAAAAAAAATAAAA [CACACA_site167]
The “gcPBM binding intensity (ln)” value of the first is higher: 10.4 for the first, 10.3 for the second.

Compared with “ATTTTTTAACATATCATACACACAACCACTTTTTAT [CACACA_site1961]”, “ATTAAATGCAGTTCGGTGCATTAAGGTTATGATGAA [GTGCAC_site9883]” is lower in “gcPBM binding intensity (ln)” value: 10.3 for the first, 9.5 for the second.

Compared with “CACATACAGACATACACACACATATAGATTAATATA [CACACA_site6399]”, “TTAGGGTTTTATAAATGTACTTATTTATACATCCTC [XGTACX_site5769]” is lower in “gcPBM binding intensity (ln)” value: 10.3 for the first, 9.58 for the second.

First: TATATATATATATTATGTACATATATATTAAATATG [XGTACX_site2494]
Second: AATAAGAAATGTAAATGTACATAAAAAAAAGTATAT [XGTACX_site3573]
The “gcPBM binding intensity (ln)” value of the first is lower: 9.58 for the first, 9.94 for the second.

Going from “CACCTTATAAATACTGCACACATAAAATATATATTA [CACACA_site8908]” to “ACATATAAATATATTACACACACACTAAAAAAATAA [CACACA_site6209]”, the “gcPBM binding intensity (ln)” value rises from 9.9 to 10.4.

Compared with “CTTATCAAAAAAAAAGCATGCCACAGGCAAAAGGTA [TGCATGCA_site574]”, “ATATATATATATATATGTACATATATACATATACAT [XGTACX_site2350]” is higher in “gcPBM binding intensity (ln)” value: 9.71 for the first, 10.1 for the second.
